In PMC4336329 (PLoS ONE, 2015):
About 2,200 (0.71%) of roughly 310,000 compounds showed an effect of 50% or more. Effects have a minus sign here. The list shows a part of the results.

The compounds below were run against human ether-à-go-go-related gene (hERG) potassium channel (human, UniProt Q12809) (assay: primary screen, population patch clamp on CHO cells stably expressing hERG).
human ether-à-go-go-related gene (hERG) potassium channel, sequence (Q12809 whole entry, looked up): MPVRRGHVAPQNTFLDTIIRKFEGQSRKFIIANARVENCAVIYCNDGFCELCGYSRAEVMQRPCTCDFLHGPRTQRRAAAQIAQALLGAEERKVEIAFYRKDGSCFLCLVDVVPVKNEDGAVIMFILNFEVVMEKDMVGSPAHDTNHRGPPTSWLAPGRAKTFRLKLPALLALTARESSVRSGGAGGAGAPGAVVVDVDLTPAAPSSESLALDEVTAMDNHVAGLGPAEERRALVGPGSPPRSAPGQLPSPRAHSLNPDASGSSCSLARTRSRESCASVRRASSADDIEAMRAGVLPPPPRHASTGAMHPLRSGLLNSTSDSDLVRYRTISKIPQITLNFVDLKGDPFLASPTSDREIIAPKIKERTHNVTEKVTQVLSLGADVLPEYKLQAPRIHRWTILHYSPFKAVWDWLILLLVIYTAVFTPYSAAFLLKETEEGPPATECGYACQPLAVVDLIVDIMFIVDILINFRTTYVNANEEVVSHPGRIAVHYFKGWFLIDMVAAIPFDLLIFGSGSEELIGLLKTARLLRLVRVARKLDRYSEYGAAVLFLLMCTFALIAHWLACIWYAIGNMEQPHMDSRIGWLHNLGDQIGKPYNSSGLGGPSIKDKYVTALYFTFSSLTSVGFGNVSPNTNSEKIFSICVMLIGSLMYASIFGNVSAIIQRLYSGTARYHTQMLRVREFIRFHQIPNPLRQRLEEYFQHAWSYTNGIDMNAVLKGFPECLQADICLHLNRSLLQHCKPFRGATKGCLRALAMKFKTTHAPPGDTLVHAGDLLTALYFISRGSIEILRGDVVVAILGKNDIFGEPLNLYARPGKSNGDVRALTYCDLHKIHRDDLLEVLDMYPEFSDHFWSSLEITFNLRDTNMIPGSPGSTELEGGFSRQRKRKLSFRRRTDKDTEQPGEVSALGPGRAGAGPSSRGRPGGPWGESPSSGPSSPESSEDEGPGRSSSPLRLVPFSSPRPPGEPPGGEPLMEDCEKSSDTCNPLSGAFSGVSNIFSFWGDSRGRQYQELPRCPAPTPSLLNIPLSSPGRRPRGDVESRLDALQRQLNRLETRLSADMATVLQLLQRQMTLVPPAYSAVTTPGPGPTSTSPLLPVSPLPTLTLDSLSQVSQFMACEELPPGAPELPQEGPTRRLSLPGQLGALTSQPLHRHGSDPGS

SMILES | hERG current change (%, negative = inhibition) at 1uM [%]
CC(=O)Nc1cccc(C(=O)N/N=C/c2ccc(F)cc2)c1 | 14.6
Cc1cccc(OC(C)C(=O)Nc2nccs2)c1 (stereo not drawn) | 12.9
Cc1cccc(NC(=O)CSc2nc(C)c(CC(=O)c3ccc(Br)cc3)c(C)c2C#N)c1C | 22.3
O=C(NC1CN2CCC1CC2)c1ccc(-c2ccc([N+](=O)[O-])cc2)o1 (stereo not drawn) | -12.6
CCCNC(=O)NC(=O)CN1C(=O)NC(C)(c2ccc3ccccc3c2)C1=O (stereo not drawn) | 8.72
COc1ccc(C2CC(=O)Nc3ccccc3S2(=O)=O)cc1OC (stereo not drawn) | 11.2
CCC1(COC(=O)Nc2cccc(Cl)c2)COC1 | 8.83
C=CCNc1nc2c(c(=O)n(C)c(=O)n2C)n1CC | 10.9
Cc1ccc(CNC(=O)CN2C(=O)COc3ccc(S(=O)(=O)N4CCCCC4)cc32)o1 | 12.7
C=C1N2CCC(CC2)C1(O)c1ccccc1C.Cl (stereo not drawn) | 9.13
CCOc1ccccc1OCCn1nnc2ccccc21 | 5.02
Cc1nc2nc[nH]n2c(=O)c1NC(=O)CCc1ccccc1 | 2.3
Cc1cccc(C)c1NC(=O)C(c1ccccc1)N1CCC1=O (stereo not drawn) | 7.61
O=C(NC(=S)Nc1cc(C(F)(F)F)ccc1N1CCOCC1)c1ccc(-c2cccc(Cl)c2)o1 | 2.52
CC(C)Nc1nc(NC(C)C)nc(NS(=O)(=O)c2ccc(N)cc2)n1 | 1.74
Cc1cc(C)c(S(=O)(=O)c2cccc(C(F)(F)F)c2)c(=O)[nH]1 | 10.7
CCOC(=O)CC(NC(=O)c1ccccc1)c1ccc(OC)cc1 (stereo not drawn) | 15.1
O=[N+]([O-])c1ccc(C2=NCCO2)cc1 | 11
COc1cc(C(=O)Oc2ccccc2/C=N/NC(=O)c2ccc(C)c(Cl)c2)cc(OC)c1OC | -2.03
CC[C@@H](C(N)=O)N1CCCC1=O | -2.85
O=C(O)CP(=O)(O)c1ccc(Cl)cc1 | 3.42
O=C(Nc1cccnc1Cl)c1cccnc1Cl | 1.53
COc1ccc(CNC(=O)C2CCCN2S(=O)(=O)c2ccc(Cl)cc2)cc1 (stereo not drawn) | -1.64

SMILES | hERG current change (%, negative = inhibition) at 1uM [%]
O=C1CC(N2CCOCC2)C(=O)N1c1cccc(Cl)c1 (stereo not drawn) | 3.56
COc1ccccc1N1C(=O)c2ccccc2NC1c1cc(OC)c(OC)c(OC)c1 (stereo not drawn) | 10.7
Cl.O=C(NC12CC3CC(CC(C3)C1)C2)c1ccc(=O)oc1 | 5.61
Cc1ccc(S(=O)(=O)N2CCC(=O)N(CCOCc3ccccc3)CC2)cc1 | 12.6
Cc1cc(C)nc(NC2=NCC(=O)N2c2cc(Cl)cc(Cl)c2)n1 | 5.31
COCCN1CCn2c(nc3cc(NC(C)=O)ccc32)C1 | 15.7
COc1ccc2c(C)cc(SCC(=O)Nc3cc(C(N)=O)cc(C(N)=O)c3)nc2c1 | 6.35
Cn1c(=NC(=O)c2ccc3c(c2)OCCO3)sc2cc(S(C)(=O)=O)ccc21 | 30.4
CC(C)c1ccc(C(=O)Nc2cccnc2)cc1 | 21.3
COc1ccc(NC(=O)CS(=O)c2ccc(Cl)c(Cl)c2)cc1 (stereo not drawn) | 8.96
CN(CC(=O)Nc1ccccc1Cl)C(=O)c1cc(-c2cccs2)nn1-c1ccccc1 | 18.3
Cc1ccc(N(CC(=O)O)S(C)(=O)=O)cc1 | -2.88
Clc1cccc(Cl)c1Cn1cnc2c(NCc3ccco3)ncnc21 | -0.966
COC(=O)c1c(C(=O)OC)c(C)n(Cc2ccco2)c1C | 3.81
O=C(NNc1ccc(F)cc1F)c1c(F)cccc1Cl | 13.5
OC(COCc1cccs1)CN1CCN(c2ccccn2)CC1 (stereo not drawn) | -1.22
CC(=O)c1ccc(OC(=O)N2CCOCC2)cc1 | 13.7
Cc1nnc(SCc2ccccc2)nc1-c1ccccc1 | 8.84
COc1cc(S(=O)(=O)n2nc(C)cc2C)ccc1Cl | 6.71
COc1ccc(OC)c(CNC(=O)C2CCCN(c3ncnc4c3nc3n4CCCCC3)C2)c1 (stereo not drawn) | -12.7
NCCC(=O)NCCc1cnc[nH]1 | 18.3
COc1ccc(CCC(N)=O)cc1OC | 9.63
CCOc1ccccc1C1NC(=O)NC(C)=C1C(=O)OC1CCCCC1 (stereo not drawn) | 14.7

SMILES | hERG current change (%, negative = inhibition) at 1uM [%]
CC(NC(=O)COC(=O)c1ccc(Cl)cc1O)c1ccc(F)cc1 (stereo not drawn) | 10.3
CC12CN3CN(C1)CC(C)(C3)C2=NO | 11.6
COc1cc(NC(=S)N2CCN(S(C)(=O)=O)CC2)cc(OC)c1 | 9.54
CCCn1c(=O)c(C(=O)NCc2ccccn2)c(O)c2ccccc21 | 11.3
CCOC(=O)C(CC(=O)c1ccccc1)CC(=O)c1ccccc1 | 7.93
C/C=C/c1ccc(OC(C)=O)c(OC)c1 | 8.76
CC1(C)C=Cc2c(c3c(c4c(=O)c(-c5ccc(O)cc5)coc24)OC(C)(C)CC3)O1 | 12.3
O=C(N/N=C/c1cccc(Oc2ccc([N+](=O)[O-])cc2[N+](=O)[O-])c1)c1cncc(Br)c1 | -3.54
O=C(NC1CC1)c1nc2c(nnn2Cc2ccccc2Cl)c(=O)[nH]1 | 0.187
Cc1nn(CC(=O)N/N=C/c2ccc(F)cc2)c(C)c1[N+](=O)[O-] | 8.43
CC[C@H]1CC2CN3CCc4c([nH]c5c([C@H]6C[C@H]7[C@H](CC)CN(C)[C@@H](Cc8c6[nH]c6ccccc86)[C@H]7C(=O)OC)c(OC)ccc45)C(C(=O)OC)(C2)C13 | 6.56
CCOc1ccccc1NC(=O)C(=O)NCC1CCCN1CC (stereo not drawn) | -12
Cn1c(/C(C#N)=C(\O)c2ccc([N+](=O)[O-])s2)nc2ccccc21 | 18.1
CCC(=O)N1CCN(c2c(Cl)cccc2[N+](=O)[O-])CC1 | -0.627
O=C(COC(=O)C1=COCCO1)Nc1ccc(F)c(F)c1 | 8.98
CCc1ccc(NC(=O)[C@H](C)NC(=O)C2CCN(C(=O)[C@@H](N)Cc3ccccc3)CC2)cc1 | -8.45
Cc1ccc(/C=C/C(=O)N2CCCN(C(=O)/C=C/c3ccc(C)cc3)CC2)cc1 | -53.5
O=C(COc1ccc(S(=O)(=O)Nc2ccccc2)cc1)NCc1ccccn1 | -6.72
NS(=O)(=O)c1c(Sc2ccccc2C(=O)O)ccc2ccccc12 | 21.1
CC(=O)C1=C(C)N(Cc2ccccc2)C(=O)N[C@@H]1c1cccc(C(F)(F)F)c1 | 4.96
COc1ccc(C)cc1NC(=O)NC(C)c1ccc2c(c1)OCO2 (stereo not drawn) | 13.7
S=c1[nH]nc(-c2cc3ccccc3o2)n1Cc1ccccc1 | 18
COc1ccc(NC(=O)/C(=C\c2ccccc2)NC(=O)c2ccco2)cc1 | 12.2

SMILES | hERG current change (%, negative = inhibition) at 1uM [%]
COc1ccc(NC(=O)CCN2CCCCCC2)c(OC)c1.Cl | 9.69
COc1ccc(S(=O)(=O)NCCOc2ccccc2)cc1C | 8.19
CC(=O)NC(C)c1nc2ccccc2n1C(C)C (stereo not drawn) | -4.54
O=C(NCc1ccccn1)c1ccc([N+](=O)[O-])cc1 | -6.03
O=C(O)C1=C[C@H](c2ccc(C(F)(F)F)cc2)C[C@H](OCc2ccc(CO)cc2)O1 | 11.2
NC(=O)C(c1ccccc1)c1ncc(C(F)(F)F)cc1Cl (stereo not drawn) | 3.55
COc1cc2[nH]c(=O)n(Cc3ccccc3Cl)c(=O)c2cc1OC | -3.33
CCCNC(=O)c1nn2c(C(F)(F)F)cc(-c3ccccc3)nc2c1Br | 18.9
COc1ccc(CC(=O)NNC2=Nc3cccc4cccc2c34)cc1OC | 4.48
O=C(NCc1cccc(C(F)(F)F)c1)C1CCCN(c2cnccn2)C1 (stereo not drawn) | -9.9
Cc1cc2c(cc1C)NC(c1nc3ccccc3[nH]1)C1=C(CC(C)(C)CC1=O)N2 (stereo not drawn) | 6.6
Cc1noc(NS(=O)(=O)c2ccc(NC(=O)CSc3ncccn3)cc2)c1C | 1.73
CN(C)C(=O)c1c(-c2ccccc2)oc2ccc(O)cc12 | 8.92
COc1ccc([N+](=O)[O-])cc1N(CC(O)CN(CC(C)C)CC(C)C)S(=O)(=O)c1ccc(C)cc1.Cl (stereo not drawn) | -3.69
CCSC1=NCCN1S(=O)(=O)c1ccc(Cl)cc1 | 1.57
COc1ccccc1NC(=S)N(Cc1cccnc1)Cc1ccco1 | -16.3
c1ccc(C(c2c[nH]c3ccccc23)c2c[nH]c3ccccc23)nc1 | -1.87
O=C1OCCN1S(=O)(=O)Nc1ccccc1 | 4.67
COc1ccc(CCN(C)Cc2c(O)ccc3cc(Br)ccc23)cc1OC | -8.32
COc1ccc(CS(=O)(=O)CC2(O)CCN(C(=O)c3cccc(C(F)(F)F)c3)CC2)cc1 | 5.2
CC[C@@]12C(=O)N(c3cccc(Br)c3)C(=O)N1[C@H](c1ccc(Cl)cc1)[C@@H]1C(=O)N(C3CCCCC3)C(=O)[C@@H]12 | 6.83
